In all, about 350,000 compounds went through this assay and about 31,000 (8.9%) were called active. This list was built around the results that the source calls inconclusive (neither active nor inactive); the mix of calls is not that of the screen. The call rests on the fitted dose curve; in most records, active means well fitted inhibition curve with a large enough effect; inconclusive means small, poorly fitted or top-dose-only effect; inactive means no such curve, though single readings can be large or run the other way. Potencies beside an inconclusive call are fits to weak or partial responses and may not hold up.
Molecular target: Histone-lysine N-methyltransferase EHMT2 (Homo sapiens) (UniProt Q96KQ7)
UniProt Q96KQ7, sequence (Q96KQ7 whole entry, looked up): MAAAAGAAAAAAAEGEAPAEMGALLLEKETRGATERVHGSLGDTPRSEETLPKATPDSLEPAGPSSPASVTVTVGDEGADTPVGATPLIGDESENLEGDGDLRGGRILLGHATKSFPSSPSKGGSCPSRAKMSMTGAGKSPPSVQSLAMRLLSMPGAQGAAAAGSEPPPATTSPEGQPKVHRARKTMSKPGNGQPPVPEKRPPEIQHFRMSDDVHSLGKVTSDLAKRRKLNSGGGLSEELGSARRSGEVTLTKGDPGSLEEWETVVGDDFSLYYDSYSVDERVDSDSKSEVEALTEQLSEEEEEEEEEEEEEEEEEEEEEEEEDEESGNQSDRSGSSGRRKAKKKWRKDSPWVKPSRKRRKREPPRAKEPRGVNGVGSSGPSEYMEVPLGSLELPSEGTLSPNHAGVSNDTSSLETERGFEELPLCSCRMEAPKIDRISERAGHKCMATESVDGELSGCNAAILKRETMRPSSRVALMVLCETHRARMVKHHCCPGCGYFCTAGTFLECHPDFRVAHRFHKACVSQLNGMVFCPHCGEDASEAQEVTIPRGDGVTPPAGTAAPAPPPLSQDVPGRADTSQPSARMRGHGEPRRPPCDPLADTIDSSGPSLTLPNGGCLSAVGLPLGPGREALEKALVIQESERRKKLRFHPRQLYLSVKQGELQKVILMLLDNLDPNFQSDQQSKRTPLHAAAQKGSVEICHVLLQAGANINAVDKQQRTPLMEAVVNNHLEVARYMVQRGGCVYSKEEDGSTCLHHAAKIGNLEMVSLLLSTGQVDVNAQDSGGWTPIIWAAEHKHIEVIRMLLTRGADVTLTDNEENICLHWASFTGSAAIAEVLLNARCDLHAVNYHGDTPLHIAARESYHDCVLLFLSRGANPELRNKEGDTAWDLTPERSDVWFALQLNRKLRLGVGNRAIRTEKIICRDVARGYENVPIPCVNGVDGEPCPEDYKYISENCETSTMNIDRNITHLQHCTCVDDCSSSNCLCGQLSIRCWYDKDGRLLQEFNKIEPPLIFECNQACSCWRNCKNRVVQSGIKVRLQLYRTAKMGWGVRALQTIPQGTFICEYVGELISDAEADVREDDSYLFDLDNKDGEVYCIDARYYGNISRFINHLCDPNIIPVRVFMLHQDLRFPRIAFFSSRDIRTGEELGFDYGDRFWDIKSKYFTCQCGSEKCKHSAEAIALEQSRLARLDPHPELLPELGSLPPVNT
Assay: qHTS Assay for Inhibitors of Histone Lysine Methyltransferase G9a; further: nearly all actives have a fitted effect of over 75% in size
Details: G9a H3K9 monomethylation, AlphaScreen, 2 h; activity, negative = inhibition: at 59 µM (top of the series) unless noted
How it was run: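 Step 1: enzyme (final 20 nM) with compound, 15 min RT. Step 2: substrate peptide 500 nM and SAM 20 uM, 2 h RT. Step 3: anti-H3K9me1 antibody and AlphaScreen beads, 10 min, then plate read.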
On the % scale 0 is the no-effect control and ±100 the full control effect; potency means the concentration at half of the fitted maximal effect; tags describe the fitted curve by direction and shape.

SMILES | Potency | activity, negative = inhibition
CCCCC(=O)Nc1sc2c(c1C(=O)OCC)CCC(C=O)=C2Cl | inconclusive: 2.24 µM [inhibitor, full curve, poor fit] | –
COc1cc(OC)c2ccc(=O)oc2c1C(CCN1CCCC(C)C1)c1ccc(N(C)C)cc1 (centres undefined) | – | inconclusive: -61.9% [inhibitor]
C/C(=N/Nc1nc(-c2ccccc2)cc(-c2ccc(F)cc2)n1)c1cccc(N)c1 | inconclusive: 39.8 µM [inhibitor, single point] | –
CCOC(=O)C1(CCc2ccccc2)CCN(C(=O)[C@@H]2C[C@@H](C)NC(=S)N2)CC1 | active: 44.7 µM | –
COc1cc(/C=C(\NC(C)=O)C(=O)N2CCCCC2)ccc1OC(C)=O | inconclusive: 89.1 µM [inhibitor, single point] | –
Cc1cccc(NC(=O)Cn2c(=O)n(CCCCCC(=O)NCc3ccc4c(c3)OCO4)c(=O)c3sccc32)c1 | inactive | –
O=C(/C=C/c1ccco1)NCc1ccc2c(c1)OCO2 | active: 20 µM | –
CCO/C=C1/C(=O)N(c2ccccc2OC)C(=O)c2ccccc21 | active: 28.2 µM | –
CC(Cl)C(=O)Nc1ncc(C(F)(F)F)cc1Cl (centres undefined) | inconclusive: 1.26 µM [inhibitor, partial curve, poor fit] | –
COc1ccc(-c2nn3c(-c4ccccc4)nnc3s2)cc1 | inconclusive: 39.8 µM [inhibitor, partial curve, poor fit] | –
COc1ccc(C2CC(c3ccccc3)=NN2C(=O)c2ccc(Cl)c([N+](=O)[O-])c2)cc1 (centres undefined) | inconclusive: 20 µM [inhibitor, single point] | –
c1ccc(-c2ccc(OCCOCCn3cncn3)cc2)cc1 | inconclusive: 3.16 µM [inhibitor, partial curve, poor fit] | –
CCCCC1=NN2CCS(=O)(=O)N=C2S1 | inactive | –
CC(C)CN(C(=O)c1cccc(S(=O)(=O)N2CCN(Cc3ccccc3)CC2)c1)C1CCS(=O)(=O)C1 (centres undefined) | inconclusive: 79.4 µM [inhibitor, single point] | –
O=C(NCc1cccnc1)C(=O)Nc1ccc2c(c1)OCO2 | inconclusive: 56.2 µM [inhibitor, partial curve, poor fit] | –
Cc1ccc(C)c(N2CCN(CCCNC(=O)c3ccc4nc(CCc5ccccc5)oc4c3)CC2)c1 | inconclusive: 31.6 µM [inhibitor, single point] | –
Cc1cc(C)c2c(NC(=O)c3ccccc3)c(C(=O)Nc3ccc(F)cc3)sc2n1 | inactive | –
Cc1cc(SCC(=O)NC(=O)NCc2ccco2)nc2c(C)cccc12 | inconclusive: 1.58 µM [inhibitor, single point] | –
CC(C)[C@H](NS(=O)(=O)c1ccc2c(c1)OCCO2)C(=O)OCC(=O)Nc1ccccc1Cl | inactive | –
Cc1nc(CNC(=O)C2CCC(=O)N(CCc3ccc(Cl)cc3)C2)sc1C (centres undefined) | inconclusive: 79.4 µM [inhibitor, single point] | –
CCCNC(=O)C1CCC(Cn2c(=O)c3sccc3n(CC(=O)NCc3cccc(OC)c3OC)c2=O)CC1 (centres undefined) | inactive | –
Cc1cc(Cl)c(OCCCN2CCCCC2)c(Br)c1 | inconclusive: 10 µM [inhibitor, partial curve, poor fit] | –
COC(=O)C1=C(CSc2nc3ccccc3s2)NC(=O)NC1c1ccc(F)cc1 (centres undefined) | active: 39.8 µM | –
Cc1cc(-n2ccnc(NCCc3ccc(S(N)(=O)=O)cc3)c2=O)ccc1Br | inactive | –
COc1cc(C(=O)N2c3ccccc3CCC2C)cc(OC)c1OC (centres undefined) | – | inactive: 28.1% [at 0.501 µM]

SMILES | Potency | activity, negative = inhibition
O=C(Oc1coc(CSc2nnc(NC(=O)c3cccs3)s2)cc1=O)c1ccccc1 | inconclusive: 25.1 µM [inhibitor, single point] | –
CCOC(=O)C1(Cc2ccccc2)CCN(Cc2ccc(C)s2)CC1 | inactive | –
CCN(CC)c1ccc(/C=N/Nc2ccccc2)c(O)c1 | inconclusive: 8.91 µM [inhibitor, full curve, poor fit] | –
COc1ccc(C(=O)c2sc(Nc3ccccc3)nc2N)cc1 | inactive | –
COc1ccc(/C=C/C(=O)O)cc1S(=O)(=O)N1CCCc2ccccc21 | inconclusive: 56.2 µM [inhibitor, partial curve, poor fit] | –
O=C(CNCc1ccco1)Nc1cc(S(=O)(=O)N2CCOCC2)ccc1N1CCCC1 | active: 50.1 µM | –
CN(C)c1ccc(P(=O)(OCc2ccccc2)C(O)c2cccnc2)cc1 (centres undefined) | inconclusive: 0.251 µM [inhibitor, full curve, poor fit] | –
O=C(CN1CCCCCC1)N/N=C/c1ccc(Cl)c(Cl)c1 | active: 12.6 µM | –
CCN1C(=O)/C(=C2\SC(=S)N(CCCOC)C2=O)c2ccccc21 | – | inactive: -2.37% [at 12.7 µM]
O=C(CSc1nc(-c2ccccc2)cc(=O)[nH]1)N1CCc2ccccc21 | – | inactive: -6.75% [at 12.7 µM]
c1ccc(-c2nc(NCCCn3ccnc3)c3oc4ccccc4c3n2)cc1 | active: 17.8 µM | –
COc1cccc(NC(=O)C(OC(=O)c2ccccc2NS(=O)(=O)c2cccs2)c2ccccc2)c1 (centres undefined) | inconclusive: 79.4 µM [inhibitor, single point] | –
O=C(O)c1ccc(Cl)c(S(=O)(=O)NC(Cc2ccccc2)C(=O)O)c1 (centres undefined) | inconclusive: 70.8 µM [inhibitor, partial curve] | –
COc1cccc(-n2c(SCC(=O)Nc3cc(C)on3)nc3ccccc3c2=O)c1 | inactive | –
Cc1nc(CSc2nnc(C)s2)cs1 | active: 44.7 µM | –
Cc1cc(C)c2c(CC(=O)N(Cc3ccc(Cl)cc3)Cc3ccco3)coc2c1 | inactive | –
COc1ccccc1Nc1ncc(C(C)=O)c(C)n1 | inactive | –
O=C(C1CCN(S(=O)(=O)c2ccc(Br)s2)CC1)N1CCN(c2cccc(C(F)(F)F)c2)CC1 | inactive | –
CCn1c(-c2cccs2)nc2ccccc21 | inactive | –
COc1ccc(CC(=O)N2CC3(C)CC2CC(C)(C)C3)cc1OC (centres undefined) | inconclusive: 22.4 µM [inhibitor, single point] | –
CC(C)(C)C(=O)CNS(=O)(=O)c1ccc(S(=O)(=O)NC2CCCC2)cc1 | inconclusive: 35.5 µM [inhibitor, partial curve, poor fit] | –
O=C(O)CCc1ccc(-c2cccs2)n1CCC(=O)O | active: 20 µM | –
COC1=C(Nc2ccc(OC)cc2)C(=O)c2ccccc2C1=O | active: 10 µM | –
Cc1ccc(CC2(O)CCN(CCOc3ccc(O)cc3)CC2)cc1 | inactive | –
Cc1cccc(C)c1NC(=O)CC1SC2=NCCN2C1=O (centres undefined) | – | inconclusive: -97% [inhibitor]

SMILES | Potency | activity, negative = inhibition
CCc1ccc(NC(=O)CSC2=C(C#N)C(c3ccco3)C3=C(CCCC3=O)N2)cc1 (centres undefined) | inconclusive: 89.1 µM [inhibitor, single point] | –
COc1cccc(Nc2ncnc3ccccc23)c1 | inconclusive: 39.8 µM [inhibitor, partial curve, poor fit] | –
O=c1c(-c2ccccc2)cnc2n1CCS2 | – | inactive: 20.8% [at 12.7 µM]
Cc1nn(-c2ccccc2)c2c1c(C)c(CCC(=O)NCC1CCCO1)c(=O)n2C (centres undefined) | inactive | –
O=C(Nc1ccccc1Cl)c1ccc([N+](=O)[O-])o1 | inconclusive: 50.1 µM [inhibitor, partial curve, poor fit] | –
CSc1ccc(CNCc2ccco2)cc1 | inconclusive: 89.1 µM [inhibitor, single point] | –
CCCCn1c(N)c(N(CCC(C)C)C(=O)C2CC(=O)N(c3ccc(OC)cc3OC)C2)c(=O)[nH]c1=O (centres undefined) | inconclusive: 44.7 µM [inhibitor, partial curve] | –
Cc1ccc(C(=O)NC(=S)Nc2ccc(NC(=O)c3cccs3)cc2)cc1[N+](=O)[O-] | inactive | –
Cn1c(C(=O)NCCN2CCN(c3ccccc3F)CC2)cc2c(=O)n(C)c3ccccc3c21 | active: 44.7 µM | –
N#Cc1c(-n2ncnc2-c2ccc(F)cc2)sc2c1CCCCC2 | inconclusive: 7.94 µM [inhibitor, full curve] | –
O=C(COc1ccc([N+](=O)[O-])cc1)N/N=C/c1ccccn1 | inactive | –
FC(F)(F)c1ccc(/C=N/N2CCN(Cc3ccccc3)CC2)cc1 | inconclusive: 28.2 µM [inhibitor, single point] | –
NC(=S)Nc1cccc(-c2n[nH]c(=S)o2)c1 | active: 39.8 µM | –
CN(C)c1ccc(NC(=O)CN2CCC(NC(=O)C3CCCCC3)CC2)cc1 | inconclusive: 89.1 µM [inhibitor, single point] | –
C(=N\N1CCN(Cc2ccccc2)CC1)/c1ccc(-c2ccccc2)cc1 | inactive | –
Cc1ccc([N+](=O)[O-])cc1N | inactive | –
O=C(Cn1cncn1)N/N=C/c1ccncc1 | inactive | –
O=C(OCc1ccc(Cl)c(Cl)c1)c1ccc[nH]1 | inactive | –
COc1cc(NC(=O)Cn2c(=O)ccc3cc(S(=O)(=O)N4CCCC4)ccc32)cc(OC)c1 | inactive | –
Cc1ccc(NC(=S)NC(NC(=O)c2ccccc2C)C(Cl)(Cl)Cl)c(C)c1 (centres undefined) | inconclusive: 5.01 µM [inhibitor, partial curve, poor fit] | –
O=C(c1ccc(-c2ccccc2Cl)o1)N1CCC1 | inconclusive: 50.1 µM [inhibitor, partial curve, poor fit] | –
Cc1ccc(C)c(S(=O)(=O)N2CCN(C(=O)C3CCN(C(=O)c4ccc(F)cc4)CC3)CC2)c1 | – | inactive: 7.42% [at 12.7 µM]
COc1ccc(NC(=O)CSc2nc(N)c(C(=O)Nc3ccc(N(C)C)cc3)s2)cc1 | inconclusive: 1.58 µM [inhibitor, full curve, poor fit] | –
O=C(Nc1ccccc1)Nc1ccc2nnsc2c1 | inactive | –
